Experimental data reported in PubChem BioAssay AID463173 (ICCB-Longwood Screening Facility, Harvard Medical School, 2010).
The whole screen tested about 52,000 compounds, of which about 4,300 (8.3%) were called active. Rule as the data show it: active = survival mostly below about 52% (no sharp cut-off); inactive = mostly above about 56%. Some of the results follow.

test system: DeltatarO mutant; assay: S. aureus survival, RN4220 and DeltatarO strains – OD600, teichoic acid synthesis inhibitors, primary screen (AID 463173); details: S. aureus RN4220 wild type/DeltatarO growth, OD600, 18 h, stronger effect = lower value, screened at 18.75 µg/mL (by protocol)

Structure (SMILES)	survival
COc1cc(C)ccc1OCCCn1c(-c2ccc(Cl)cc2)nc2ccccc2c1=O	inactive: 62%
Cc1ccc(NC(=O)CC2SC3=NCCN3C2=O)cc1 (stereo not given)	inactive: 85%
Cc1cccc(-n2c(SCc3nc(-c4ccccc4C)no3)nnc2-c2ccccc2)c1	inactive: 74%
CN1CCN(c2oc(/C=C/c3ccc(F)cc3)nc2C#N)CC1	inactive: 76%
CC(C)S(=O)(=O)c1oc(-c2ccc(F)cc2)nc1S(=O)(=O)c1ccccc1	active: 33%
OC(CN1CCOCC1)Cn1c2ccccc2c2ccccc21 (stereo not given)	inactive: 94%
COc1cc(NC(=O)c2nn(-c3ccc(C)cc3)c(=O)c3c2c2ccccc2n3C)cc(OC)c1OC	inactive: 80%
CCOC(=O)c1ccccc1NS(=O)(=O)c1ccc(N2CCCCS2(=O)=O)cc1	inactive: 90%
CCc1nn(CC(=O)NC(C)CC)c(=O)c2cc3c(OC)cccc3n12 (stereo not given)	inactive: 128%
Cc1ccc(C)c(N2CCN(S(=O)(=O)c3ccc(-c4cc(C(F)(F)F)on4)s3)CC2)c1	inactive: 88%
Nc1cc[n+](CC(O)CO)cc1 (stereo not given)	inactive: 65%
Cc1nc(Nc2nc3ccccc3o2)nc(-c2ccc(Cl)cc2)c1C#N	inactive: 71%
Cc1ccsc1CN(Cc1ccco1)C(=O)c1ccc(Cl)cc1	active: 34%
O=C(Nc1cc(C(F)(F)F)ccc1Cl)c1cc(-c2cccs2)nc2ccccc12	inactive: 86%
Cc1cc(C)n(C(=O)CNC(=O)Cc2ccccc2)n1	inactive: 89%
Cc1cc(C)c(S(=O)(=O)NCCc2sc(-c3cccnc3)nc2C)c(C)c1	inactive: 117%
COc1ccc(-c2ccc(/C=N/NC(N)=O)o2)cc1	inactive: 110%
Cc1cc(S(=O)(=O)Nc2cc3c(cc2Cl)n(C)c(=O)c(=O)n3C)ccc1F	inactive: 68%
Cn1c(=O)c2cc(C(=O)N3CCN(c4cccc(C(F)(F)F)c4)CC3)sc2c2ccccc21	inactive: 92%
O=C(CN1C(=O)COc2ccc(S(=O)(=O)N3CCOCC3)cc21)Nc1ccc(F)c(Cl)c1	inactive: 106%
Cc1c(Cl)cccc1NC(=O)C1CCCN(C(=O)c2cnn(-c3ccccc3)c2-n2cccc2)C1 (stereo not given)	inactive: 91%
COc1cc(OC)c(N(C)C(=O)c2cn(C)c(=O)c3cc(OC)c(OC)cc23)cc1Cl	inactive: 68%
O=C(Nc1nc2c(F)cc(F)cc2s1)c1ccc2c(c1)OCCO2	inactive: 85%
CCc1ccccc1NC(=O)CSc1nc(C)c(C(=O)Nc2ccccc2)c(-c2ccc(Cl)cc2)c1C#N	inactive: 72%
Cc1ccc(NC(=O)C2CCN(S(=O)(=O)c3cccc4nonc34)CC2)c(Cl)c1	inactive: 87%
